Among all 350,000 compounds or so, about 31,000 (8.9%) were called active. The shares of active, inactive and inconclusive entries below differ from those in the screen. The call rests on the fitted dose curve; in most records, active means well fitted inhibition curve with a large enough effect; inconclusive means small, poorly fitted or top-dose-only effect; inactive means no such curve, though single readings can be large or run the other way. Potencies beside an inconclusive call are fits to weak or partial responses and may not hold up.
Each compound was assayed against Histone-lysine N-methyltransferase EHMT2 (Homo sapiens) (UniProt Q96KQ7) (assay: qHTS Assay for Inhibitors of Histone Lysine Methyltransferase G9a). Conditions: G9a H3K9 monomethylation, AlphaScreen, 2 h; activity, negative = inhibition: at 59 µM (top of the series) unless noted.
How it was run: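 Readings reflect AlphaScreen signal from monomethyl-H3K9 antibody detection. HMT at 20 nM; substrate b-H3K9 500 nM; cofactor SAM 20 uM; 2 h RT reaction; compounds tested as titrations in qHTS with 15 min preincubation.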
Further: nearly all actives have a fitted effect of over 75% in size.
On the % scale 0 is the no-effect control and ±100 the full control effect; potency means the concentration at half of the fitted maximal effect; tags describe the fitted curve by direction and shape.

Chain of UniProt Q96KQ7 (Q96KQ7 whole entry, looked up): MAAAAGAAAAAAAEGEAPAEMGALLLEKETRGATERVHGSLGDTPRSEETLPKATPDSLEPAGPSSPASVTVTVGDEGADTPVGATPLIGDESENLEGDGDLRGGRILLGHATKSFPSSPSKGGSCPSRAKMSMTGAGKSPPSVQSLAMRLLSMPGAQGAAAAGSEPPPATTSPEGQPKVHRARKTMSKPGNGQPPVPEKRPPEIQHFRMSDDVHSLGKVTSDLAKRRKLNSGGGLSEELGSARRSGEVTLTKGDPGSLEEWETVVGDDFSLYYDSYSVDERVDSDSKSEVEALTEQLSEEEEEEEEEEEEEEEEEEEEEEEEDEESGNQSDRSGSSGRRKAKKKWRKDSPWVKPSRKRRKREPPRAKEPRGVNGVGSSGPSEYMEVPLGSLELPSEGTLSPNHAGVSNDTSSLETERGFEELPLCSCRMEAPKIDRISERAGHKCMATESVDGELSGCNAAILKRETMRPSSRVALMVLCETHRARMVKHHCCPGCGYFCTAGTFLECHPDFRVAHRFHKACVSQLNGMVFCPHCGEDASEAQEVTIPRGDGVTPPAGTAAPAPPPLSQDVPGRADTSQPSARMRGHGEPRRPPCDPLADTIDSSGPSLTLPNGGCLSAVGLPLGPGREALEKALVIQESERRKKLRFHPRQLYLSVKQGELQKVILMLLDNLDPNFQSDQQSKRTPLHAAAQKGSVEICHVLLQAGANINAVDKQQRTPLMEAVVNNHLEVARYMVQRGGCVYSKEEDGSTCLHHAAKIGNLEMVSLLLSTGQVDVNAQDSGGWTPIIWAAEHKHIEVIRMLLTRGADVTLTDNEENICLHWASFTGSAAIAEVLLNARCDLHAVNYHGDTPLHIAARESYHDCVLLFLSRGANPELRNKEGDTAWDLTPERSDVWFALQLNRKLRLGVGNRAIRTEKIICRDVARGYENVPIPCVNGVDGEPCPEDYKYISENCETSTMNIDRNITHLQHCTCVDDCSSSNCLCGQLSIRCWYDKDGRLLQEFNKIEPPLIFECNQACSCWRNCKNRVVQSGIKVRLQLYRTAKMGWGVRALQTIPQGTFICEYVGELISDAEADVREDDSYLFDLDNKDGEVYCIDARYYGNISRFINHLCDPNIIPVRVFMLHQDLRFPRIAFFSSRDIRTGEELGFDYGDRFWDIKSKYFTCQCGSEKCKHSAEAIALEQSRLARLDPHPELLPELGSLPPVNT

Row | Structure (SMILES) | Potency | activity, negative = inhibition
1 | Cc1ccc(-c2nnn(CC(=O)N(CCO)C(C(=O)NC(C)(C)C)c3ccncc3)n2)cc1 (stereo not given) | inconclusive: 89.1 µM [inhibitor, single point] | 
2 | CCOC(=O)C1=C(C)OC(N)=C(C#N)C1c1c(C)nn(-c2ccc(C)cc2)c1Cl (stereo not given) | inconclusive: 79.4 µM [inhibitor, single point] | 
3 | Cc1cc(NC(=O)CSc2cn(CCNC(=O)c3ccc(Cl)cc3)c3ccccc23)no1 |  | inconclusive: -53.7% [inhibitor]
4 | Cc1nc(-c2ccc(NS(C)(=O)=O)cc2)cs1 |  | inactive: -4.48% [at 102 µM]
5 | CCc1ccc(-n2nc(CO)c(C(=O)NCc3ccccn3)n2)cc1 | inconclusive: 10 µM [inhibitor, partial curve] | 
6 | COc1cccc(-c2noc(C3CCCN(C(=O)CC(C)(C)C)C3)n2)c1 (stereo not given) |  | inactive: -8.47% [at 102 µM]
7 | COc1ccc(OC)c2sc(N3CCc4ccccc4C3)nc12 | inconclusive: 35.5 µM [inhibitor, partial curve] | 
8 | O=C(COC(=O)CNC(=O)c1ccccc1)Nc1nnc(-c2ccccc2)o1 | active: 44.7 µM | 
9 | NC(=O)CN1CCOCCOCCN(CC(N)=O)CCOCC1 | inconclusive: 3.16 µM [inhibitor, partial curve, poor fit] | 
10 | O=C1CCC(=O)N1c1nc2nc(-c3ccccc3)cc(=O)n2[nH]1 | inconclusive: 2.82 µM [inhibitor, partial curve, poor fit] | 
11 | COc1ccccc1CNc1ncncc1-c1ccccc1Cl |  | inactive: 11.5% [at 0.501 µM]
12 | CC1(N2CCOCC2)CC2(O)C(=[N+]1[O-])CCc1c2no[n+]1[O-] (stereo not given) | inconclusive: 39.8 µM [inhibitor, single point] | 
13 | O=C(COC(=O)c1ccc(NS(=O)(=O)c2cccs2)cc1)NCc1ccco1 |  | inconclusive: -81.9% [inhibitor]
14 | CCN(CC)C(=O)COc1ccc2oc(C)c(C(=O)OC(C)C)c2c1 | inconclusive: 56.2 µM [inhibitor, partial curve, poor fit] | 
15 | CCCCCCCN1CCC(=O)N(CCO)CC1 |  | inactive: 8.74% [at 102 µM]
16 | CCOc1ccccc1C(=O)NCC(=O)NCC(c1ccco1)N1CCCCC1 (stereo not given) |  | inactive: 4.89% [at 0.501 µM]
17 | Fc1cccc(CNc2ncnc3ccc(-c4ccccc4Cl)cc23)c1 |  | inactive: 13.2% [at 12.7 µM]
18 | CCC(=O)NC(Cc1ccccc1)c1ccc2c(c1)OCCCO2 (stereo not given) | inconclusive: 89.1 µM [inhibitor, single point] | 
19 | O=C(CN1CCCc2ccccc21)N/N=C/c1c(O)ccc2ccccc12 | active: 39.8 µM | 
20 | CC(Sc1oc(-c2ccco2)nc1S(=O)(=O)c1ccc(Br)cc1)c1ccccc1 (stereo not given) | inconclusive: 12.6 µM [inhibitor, partial curve, poor fit] | 
21 | CNc1ccccc1C(=O)OCC(=O)N(CCOC)c1c(N)n(CC(C)C)c(=O)[nH]c1=O |  | inactive: -1.3% [at 102 µM]
22 | Cc1ccc(SCc2nc3ccccc3n2CC(=O)Nc2ccc(Cl)cc2)cc1 |  | inactive: 11% [at 12.7 µM]
23 | CC(C)C(=O)Nc1ccc(N2CCCC2)cc1 | inconclusive: 1.78 µM [inhibitor, full curve, poor fit] | 
24 | CC(C)(C)NC(=O)/C(=C\c1ccco1)NC(=O)c1ccco1 | inconclusive: 70.8 µM [inhibitor, single point] | 

Row | Structure (SMILES) | Potency | activity, negative = inhibition
25 | COc1ccc(CC(=O)NCc2ccc(-n3cccc3)cc2)cc1OC | inconclusive: 7.94 µM [inhibitor, partial curve, poor fit] | 
26 | COc1ccc(N2CCN(c3nc(-c4ccccc4F)nc4ccccc34)CC2)cc1 | inconclusive: 17.8 µM [inhibitor, partial curve, poor fit] | 
27 | Cc1ccc(NC(=O)CN(C)C(=O)c2cc(-c3ccco3)nc3ccccc23)cc1 | active: 31.6 µM | 
28 | OC12CCCCC1C(c1ccc3c(c1)OCO3)N(Cc1ccccc1F)CC2 (stereo not given) | inconclusive: 89.1 µM [inhibitor, single point] | 
29 | N#Cc1ccc(CN2CCN(CC(=O)NCCc3ccc(Cl)cc3Cl)CC2)cc1 | inconclusive: 6.31 µM [inhibitor, partial curve, poor fit] | 
30 | Cc1cc(C)c2nc(SCC(=O)NC(=O)c3cccn3C)cc(C)c2c1 | inconclusive: 44.7 µM [inhibitor, partial curve] | 
31 | CN(C)c1ccc(NC(=O)CSc2nnc(C3CCCCC3)n2N)cc1 | active: 39.8 µM | 
32 | Cc1cc(=O)[nH]c(SCC(=O)Nc2nc(-c3ccccc3)cs2)n1 | active: 50.1 µM | 
33 | NC(N)=N/N=C\c1c(Cl)cccc1Cl |  | inactive: 2.6% [at 2.33 µM]
34 | CC1C(=O)NN=C1C(=O)N/N=C/c1ccco1 (stereo not given) | inconclusive: 31.6 µM [inhibitor, full curve, poor fit] | 
35 | CC(=O)Nc1cccc(-c2nn[nH]n2)c1 |  | inconclusive: -64.1% [inhibitor]
36 | CCn1c(C(=O)NCCCN2CCc3ccccc3C2)cc2sccc21 | inconclusive: 25.1 µM [inhibitor, single point] | 
37 | CCCOC(=O)C1=C(C)NC2=C(C(=O)CC(C)(C)C2)C1c1ccc(N(C)C)cc1 (stereo not given) | active: 35.5 µM | 
38 | Cc1ccc(CNC(=O)CCSCc2ccc(C)cc2)cc1 |  | inactive: -2.6% [at 102 µM]
39 | CCOC(=O)c1c(C)[nH]c(C)c1S(=O)(=O)N1CCC(C(=O)NCc2ccccc2)CC1 |  | inactive: -0.127%
40 | OCCN1CCN(c2nc3ccccc3nc2-c2ccccc2)CC1 | inconclusive: 50.1 µM [inhibitor, partial curve, poor fit] | 
41 | Cc1ccc(C)c(OCCSc2nc3ccccc3n2CC(=O)N2CCOCC2)c1 | inconclusive: 25.1 µM [inhibitor, partial curve, poor fit] | 
42 | Cn1c(=O)n(Cc2ccc(Br)cc2)c2ccccc21 |  | inactive: 6.64% [at 102 µM]
43 | CC(C)c1ccc(NC(=O)COC(=O)c2cc(=O)[nH]c3ccccc23)cc1 | inconclusive: 31.6 µM [inhibitor, single point] | 
44 | Clc1cc(Br)ccc1OCCOCCN1CCOCC1 |  | inconclusive: -119% [inhibitor]
45 | CCc1cccc(CC)c1NC(=O)c1cc(S(=O)(=O)N2CCc3ccccc32)cn1C | inconclusive: 7.94 µM [inhibitor, partial curve, poor fit] | 
46 | O=C(Nn1c(-c2ccc(Br)cc2)nc2ccccc2c1=O)c1ccc([N+](=O)[O-])cc1 |  | inactive: 0.125%
47 | N=c1n(Cc2ccc(Cl)cc2)c2ccccc2n1CC(O)COc1ccccc1 (stereo not given) | inconclusive: 31.6 µM [inhibitor, partial curve] | 
48 | CCOC(=O)c1[nH]c(=O)[nH]c1COC(=O)c1cc2ccccc2o1 | active: 7.94 µM | 

Row | Structure (SMILES) | Potency | activity, negative = inhibition
49 | O=C(C1CC(=O)N(C2CCCC2)C1)N1CCN(c2ccccc2)CC1 (stereo not given) | inconclusive: 14.1 µM [inhibitor, full curve] | 
50 | Cc1sc2nc(CN3CCCC3)nc(N3CCN(S(=O)(=O)c4cccc(F)c4)CC3)c2c1C | inconclusive: 31.6 µM [inhibitor, single point] | 
51 | Cc1ccc(OCC(=O)N/N=C/c2ccc([N+](=O)[O-])o2)cc1 |  | inactive: -46.8% [at 12.7 µM]
52 | C=CCc1ccc(OCC(O)CN2CCCCC2)c(OC)c1 (stereo not given) | inconclusive: 56.2 µM [inhibitor, partial curve, poor fit] | 
53 | O=C1CCCC(O)=C1N=Nc1ccc2ncsc2c1 | inconclusive: 39.8 µM [inhibitor, single point] | 
54 | O=C(NNC1=C(C(=O)C(F)(F)F)CCC1)c1cccc(Cl)c1 | inconclusive: 1.58 µM [inhibitor, full curve, poor fit] | 
55 | CC(=O)Nc1ccc(/C=C/c2ccc3c([N+](=O)[O-])cccc3n2)cc1 | inconclusive: 79.4 µM [inhibitor, single point] | 
56 | COc1ccc(-n2c(=O)c(-c3cccs3)nc3cnc(N(C)C)nc32)cc1 |  | inactive: 14.7% [at 0.501 µM]
57 | CCN(CC(=O)Nc1c(F)cccc1F)C(=O)CNC(=O)c1ccco1 |  | inactive: 2.45% [at 102 µM]
58 | COc1ccc(NC(=O)CS(=O)CC(=O)Nc2ccc(-n3cnnn3)c(C)c2)cc1 (stereo not given) |  | inactive: -2.44% [at 102 µM]
59 | COc1ccc(S(=O)(=O)N2CCCCCC2)cc1C(=O)N(C)CC(=O)Nc1cc(C)ccc1C |  | inactive: 13.8% [at 0.501 µM]
60 | O=C1O/C(=C\c2ccccc2)c2ccccc21 |  | inactive: 141% [at 102 µM]
61 | O=C(NNS(=O)(=O)c1ccccc1)c1cccc([N+](=O)[O-])c1 | inconclusive: 89.1 µM [inhibitor, single point] | 
62 | Cc1ccc(S(=O)(=O)N2CCCC(c3nc4c(nnn4Cc4ccc(OC(F)(F)F)cc4)c(=O)[nH]3)C2)cc1 (stereo not given) |  | inactive: -27.1%
63 | CN(C(=O)COC(=O)CCC(=O)c1ccccc1)c1c(N)n(Cc2ccccc2)c(=O)[nH]c1=O | inconclusive: 8.91 µM [inhibitor, partial curve] | 
64 | CCC1C(=O)N=C(SCC(=O)Nc2cccc3ccccc23)NC1=O (stereo not given) | inconclusive: 28.2 µM [inhibitor, single point] | 
65 | N#Cc1nc(COc2ccccc2)oc1N1CCCCCC1 | active: 44.7 µM | 
66 | O=C1CC(c2nc3ccccc3n2Cc2c(F)cccc2Cl)CN1c1cccc(C(F)(F)F)c1 (stereo not given) |  | inactive: -1.13%
67 | CC(OC(=O)C(C)Oc1ccccc1)C(=O)Nc1ccc(S(=O)(=O)N2CCCCC2)cc1 (stereo not given) | inconclusive: 3.98 µM [inhibitor, single point] | 
68 | Cc1cc(=O)[nH]c(SCC(=O)NNC(=O)Cc2ccccc2)n1 |  | inactive: 36.4% [at 102 µM]
69 | CCOC(=O)N1CCc2c(sc3c2c(=O)n(Cc2ccccc2)c(=O)n3Cc2c(F)cccc2Cl)C1 |  | inactive: -10.4%
70 | Cc1ccc(S(=O)(=O)NC(C)C(=O)Nc2ccccc2C(=O)N2CCCC2)cc1 (stereo not given) | inconclusive: 70.8 µM [inhibitor, single point] | 

Reference: PubChem BioAssay AID504332 (National Center for Advancing Translational Sciences (NCATS), 2011)
